Assay results: PMC4336329 (PLoS ONE, 2015)
The campaign covered roughly 310,000 compounds. About 14,000 (4.5%) showed an effect of 50% or more. Effects have a minus sign here. Some of the results follow.

What follows are molecules tested against human ether-à-go-go-related gene (hERG) potassium channel (human, UniProt Q12809) (assay: primary screen, population patch clamp on CHO cells stably expressing hERG).
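Also: peak tail current of the secondary pulse compared with the same well before compound.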

human ether-à-go-go-related gene (hERG) potassium channel, sequence (Q12809 whole entry, looked up): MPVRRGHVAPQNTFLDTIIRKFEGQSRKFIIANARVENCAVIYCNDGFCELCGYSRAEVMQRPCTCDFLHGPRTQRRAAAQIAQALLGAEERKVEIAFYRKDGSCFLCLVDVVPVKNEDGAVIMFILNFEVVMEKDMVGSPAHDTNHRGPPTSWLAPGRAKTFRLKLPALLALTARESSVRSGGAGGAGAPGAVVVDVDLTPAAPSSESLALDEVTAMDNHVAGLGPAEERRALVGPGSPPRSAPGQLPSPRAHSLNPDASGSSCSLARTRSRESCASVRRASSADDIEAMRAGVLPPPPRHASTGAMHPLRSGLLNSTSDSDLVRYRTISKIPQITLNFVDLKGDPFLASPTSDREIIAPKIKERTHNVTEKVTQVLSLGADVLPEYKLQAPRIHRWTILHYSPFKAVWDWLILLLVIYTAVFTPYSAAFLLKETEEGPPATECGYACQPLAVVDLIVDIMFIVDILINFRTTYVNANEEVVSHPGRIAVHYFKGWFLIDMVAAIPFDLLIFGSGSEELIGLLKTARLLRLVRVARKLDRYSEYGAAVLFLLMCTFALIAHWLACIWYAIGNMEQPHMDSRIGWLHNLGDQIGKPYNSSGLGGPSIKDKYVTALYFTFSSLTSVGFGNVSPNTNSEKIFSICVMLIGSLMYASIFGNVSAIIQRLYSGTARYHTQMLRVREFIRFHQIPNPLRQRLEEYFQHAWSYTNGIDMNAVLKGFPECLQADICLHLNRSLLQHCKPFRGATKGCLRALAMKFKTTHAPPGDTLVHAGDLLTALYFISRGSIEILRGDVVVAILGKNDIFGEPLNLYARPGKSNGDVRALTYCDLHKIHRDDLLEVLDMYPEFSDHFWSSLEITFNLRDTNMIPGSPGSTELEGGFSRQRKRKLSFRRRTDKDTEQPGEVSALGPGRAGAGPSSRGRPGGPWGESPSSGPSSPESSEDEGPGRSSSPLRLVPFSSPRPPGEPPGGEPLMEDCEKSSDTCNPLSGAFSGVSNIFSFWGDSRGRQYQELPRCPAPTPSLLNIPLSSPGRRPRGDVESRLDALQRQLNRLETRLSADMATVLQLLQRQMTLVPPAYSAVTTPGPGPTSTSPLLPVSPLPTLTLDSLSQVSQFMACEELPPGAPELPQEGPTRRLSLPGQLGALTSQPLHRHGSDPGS

Row | Structure (SMILES) | hERG current change (%, negative = inhibition) at 10uM [%]
1 | O=c1cc(N2CCCCC2)c2ccccc2o1 | -23.8
2 | Cc1c(N=Cc2c(O)n(CCc3ccccc3)c(=O)[nH]c2=O)c(=O)n(-c2ccccc2)n1C | -39.3
3 | CCOC(=O)c1cnc2c(C)cccc2c1Nc1ccc(N2CCOCC2)cc1 | 8.24
4 | CC(=O)c1cccc(N(C(=O)c2ccco2)C(C(=O)NC2CCCC2)c2cccs2)c1 (centres unmarked) | 24
5 | CCOC(=O)c1c(N)ssc1=S | -24.3
6 | CC1CCCCC1NC(=O)/C(C#N)=C/C=C/c1ccccc1[N+](=O)[O-] (centres unmarked) | 5.19
7 | COC(=O)c1sc(=S)n(-c2ccccc2OC)c1N | -11.8
8 | CC1CCN(C2=NC(=O)/C(=C/c3cn(-c4ccccc4)nc3-c3cccc(S(=O)(=O)N(C)C)c3)S2)CC1 | -1.64
9 | O=C(CSc1nc(Nc2ccccc2)nc(N2CCOCC2)n1)N1CCCC1 | -60.4
10 | Cn1cc(C2=C(c3ccc(Cl)cc3Cl)C(=O)NC2=O)c2ccccc21 | 33
11 | COc1ccc(C(=O)N/C(=C\c2cc(OC)c(OC)cc2[N+](=O)[O-])C(=O)NCCO)cc1 | 17.3
12 | CSC(=Nc1cccc(C)c1)NC#N | 8.71
13 | O=C(N/N=C/c1sc(=O)n(-c2ccccc2)c1Cl)c1ccccc1 | 4.77
14 | O=C(Nc1ccc(Br)cc1)c1nn(C23CC4CC(CC(C4)C2)C3)cc1Br | 14.3
15 | CC(C)CN1CCN(Cc2cccn2-c2ccc(Cl)cn2)CC1CCO (centres unmarked) | -64.6
16 | CCCC(=O)Nc1ccccc1NC(=O)c1cc(OC)c(OC)c(OC)c1 | 13.7
17 | COC(=O)CN1C(=S)N(Cc2ccccc2)C(=O)C1CC(=O)Nc1ccc(OC)cc1 (centres unmarked) | -14.3
18 | Cc1cccc(C)c1OCCOC(=O)c1n[nH]c2ccccc12 | -30
19 | COc1ccccc1/C=C/C1(C(=O)NC2CCCC2)CC(=O)N1c1ccc(C)cc1 (centres unmarked) | -6.46

Row | Structure (SMILES) | hERG current change (%, negative = inhibition) at 10uM [%]
20 | COc1cc(C)ccc1OCCCOc1ccccc1Br | -2.07
21 | O=C1N=C2SCCN2/C1=C\c1ccccc1Cl | -2.33
22 | CC(C)C(C)NC(=O)CN1C(=O)NC(c2ccccc2)(c2ccccc2)C1=O (centres unmarked) | 6.71
23 | Cc1ccc(S(=O)(=O)N(C)C)cc1NC(=O)COC(=O)C1CCCC1 | 3.16
24 | CCN(C(=O)c1cc2ccccc2o1)C12CC3CC(CC(C3)C1)C2 | 11.4
25 | Cc1ccc(-n2nnc3c(=O)n(CC(=O)N4CCCC4)cnc32)cc1 | -26.7
26 | Cc1noc(C)c1COc1ccccc1C(=O)NC(C)c1ccc(Cl)cc1 (centres unmarked) | -55.8
27 | O=[N+]([O-])c1ccccc1/C=N\N1CCN(Cc2ccccc2Cl)CC1 | 9.77
28 | Cc1ccc(CNC(=O)C(=O)NCC2OCCCN2S(=O)(=O)c2cccs2)cc1 (centres unmarked) | -23.3
29 | COc1ccccc1NC(=S)NC(=O)C(C)(C)C | -9.31
30 | CC(=O)c1c(C)[nH]c(C(=O)OCC(=O)c2c(N)n(C)c(=O)n(C)c2=O)c1C | 18
31 | CCCCC(=O)Nc1ccc(NC(=S)NC(=O)CC(C)C)cc1OC | -8.21
32 | CCCCOc1ccc(C(=O)NCC(=O)NCC(c2ccc(OC)cc2)N2CCCC2)cc1 (centres unmarked) | -35.7
33 | Cc1ccc(S(=O)(=O)NC2=NCN(Cc3ccccc3)CN2)cc1 | 15.2
34 | CCCCc1ccc(NC(=O)c2ccc(N(C)S(C)(=O)=O)cc2)cc1 | 9.56
35 | CCc1ccc(NC(=O)CN2CC(c3ccccc3)CC2=O)cc1 (centres unmarked) | -27.6
36 | CC(C)CNC(=O)c1ccc(Cl)c(N)c1 | -6.74
37 | Cc1cc(C)c2c(n1)sc1c(O)cc(=O)[nH]c12 | -3.98
38 | Cc1cc(=O)oc2c(C)c(OCC(=O)NCc3ccccn3)ccc12 | 4.63

Row | Structure (SMILES) | hERG current change (%, negative = inhibition) at 10uM [%]
39 | CC(C)C(NC(=O)c1c(F)cccc1F)C(=O)N1CCN(S(=O)(=O)/C=C/c2ccccc2)CC1 (centres unmarked) | -25.7
40 | CCOc1nc(Nc2ccc(OC)cc2)nc(OCC)n1 | -23.4
41 | COc1cc(C(=O)NC(CCSC)C(=O)OCC(=O)NC(=O)C2CCCCC2)cc(OC)c1OC (centres unmarked) | 2.42
42 | Cc1cccc(NS(=O)(=O)c2ccc(-c3ccc(=O)[nH]n3)o2)c1 | 2.35
43 | O=C1CCCC(O)=C1Sc1cc(Cl)c(Cl)cc1Cl | 15.5
44 | O=P(CCCCCCCCCP(=O)(c1ccccc1)c1ccccc1)(c1ccccc1)c1ccccc1 | -56.1
45 | O=C(CCC(=O)c1cccs1)Nc1nc2ccccc2s1 | 11.5
46 | Cc1nc(SCC(=O)NCC2CCCO2)c2cc(-c3ccccc3)sc2n1 (centres unmarked) | -6.42
47 | CCCN1C(=O)/C(=C/c2cc(C)n(C)c2C)SC1=Nc1ccc(OCC)cc1 | 15.1
48 | Cc1c(Cl)c(C(=O)NNC(=S)Nc2ccc(F)cc2)nn1C | 28.7
49 | COc1ccccc1Oc1ccc2c(c1)C(=O)N(CC1CCCO1)C2=O (centres unmarked) | -7.89
50 | Cc1ccc(NC(=O)N2CCCN(C(=O)OC(C)(C)C)CC2)cc1Cl | -3.72
51 | COc1cccc(C(=O)Nc2nnc(-c3cccs3)o2)c1 | 4.37
52 | CC(=O)O.NC(N)=N/N=C/c1ccccc1OC(F)F | -9.69
53 | O=C(NCc1nnc(SCC(=O)N2CCCc3ccccc32)o1)c1ccccc1F | 2.41
54 | CNC(=O)Oc1ccc(-c2cn3cc(Cl)ccc3n2)cc1 | 0.0709
55 | COc1ccc(-n2nc(C(=O)NCC(=O)NC3CCCC(C)C3C)c3ccccc3c2=O)cc1 (centres unmarked) | 8.55
56 | O=C1CN(C(=O)CSc2nnc(C3CC3)n2-c2ccccc2)c2ccccc2N1 | 1.49
